From publication PMC4336329 (PLoS ONE, 2015)
About 2,200 (0.71%) of roughly 310,000 compounds showed an effect of 50% or more. Effects have a minus sign here. The list shows a part of the results.

The compounds below were run against human ether-à-go-go-related gene (hERG) potassium channel (human, UniProt Q12809) (assay: primary screen, population patch clamp on CHO cells stably expressing hERG).
Protocol: Briefly, Chinese hamster ovary (CHO) cells stably expressing the hERG channel were dislodged from tissue culture flasks and dispensed into PPC plates. […] During the recording, background leak currents were estimated by a 100 ms step to -80 mV from an initial holding potential of -70 mV and subtracted from the subsequent current measurement. The campaign was conducted in two phases using slight differences in recording protocol. In the first phase, the initial voltage pulse used a 100 ms step to -30 mV from a holding potential of -70 mV, a 2 s conditioning step to +25 mV, and a 2 s test step to -30 mV. During the second phase of the screen, the potential during the conditioning step was raised to +45 mV. In both phases of the campaign, a secondary voltage pulse was applied using the same parameters as the second phase initial pulse. The initial and secondary pulses were applied in the absence of compound, and upon application of 1 μM and 10 μM test concentrations. Small molecule effects on hERG current density were quantified by […].

Chain of human ether-à-go-go-related gene (hERG) potassium channel (Q12809 whole entry, looked up): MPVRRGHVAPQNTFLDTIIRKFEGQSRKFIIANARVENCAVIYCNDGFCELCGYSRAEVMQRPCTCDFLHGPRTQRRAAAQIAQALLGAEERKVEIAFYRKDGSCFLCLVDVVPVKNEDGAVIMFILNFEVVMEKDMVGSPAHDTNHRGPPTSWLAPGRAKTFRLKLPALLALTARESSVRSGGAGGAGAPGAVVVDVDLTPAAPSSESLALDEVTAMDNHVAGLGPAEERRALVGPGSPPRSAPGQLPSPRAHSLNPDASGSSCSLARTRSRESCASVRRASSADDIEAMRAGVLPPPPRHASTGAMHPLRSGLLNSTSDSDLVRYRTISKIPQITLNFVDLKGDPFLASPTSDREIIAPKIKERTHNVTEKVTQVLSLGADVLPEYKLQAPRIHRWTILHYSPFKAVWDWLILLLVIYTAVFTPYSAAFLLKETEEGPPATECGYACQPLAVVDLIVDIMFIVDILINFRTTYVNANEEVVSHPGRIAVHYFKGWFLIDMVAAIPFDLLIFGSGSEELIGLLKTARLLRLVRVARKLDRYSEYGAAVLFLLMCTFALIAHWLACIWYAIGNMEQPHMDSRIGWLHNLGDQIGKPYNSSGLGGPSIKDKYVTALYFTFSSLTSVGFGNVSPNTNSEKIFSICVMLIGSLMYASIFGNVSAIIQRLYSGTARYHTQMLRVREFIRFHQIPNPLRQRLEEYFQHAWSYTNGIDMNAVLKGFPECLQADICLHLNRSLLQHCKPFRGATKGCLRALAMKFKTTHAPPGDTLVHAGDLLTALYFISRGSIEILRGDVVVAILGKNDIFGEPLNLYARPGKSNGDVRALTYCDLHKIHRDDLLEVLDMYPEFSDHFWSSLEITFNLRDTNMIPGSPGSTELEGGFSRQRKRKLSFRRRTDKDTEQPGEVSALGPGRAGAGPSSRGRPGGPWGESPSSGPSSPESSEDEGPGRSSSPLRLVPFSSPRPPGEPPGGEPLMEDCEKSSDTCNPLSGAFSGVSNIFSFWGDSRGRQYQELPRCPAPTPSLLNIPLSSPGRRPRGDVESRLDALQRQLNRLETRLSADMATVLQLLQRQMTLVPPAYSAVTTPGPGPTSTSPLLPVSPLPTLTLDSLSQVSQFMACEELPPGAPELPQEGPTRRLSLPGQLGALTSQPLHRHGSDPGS

Row | SMILES | hERG current change (%, negative = inhibition) at 1uM [%]
1 | COc1ccc(-c2nnn(CC(=O)NCc3ccccc3)n2)cc1OC | 8.49
2 | NC(=O)COC(=O)c1cc(=O)[nH]c2ccccc12 | 8.25
3 | CCOC(=O)/C(C#N)=C/c1c(Oc2cc(C)cc(C)c2)nc2ccccn2c1=O | 9.54
4 | COc1ccc(NC(=S)N(CCN(C)C)C(C)c2ccco2)cc1Cl (stereo not drawn) | 9.29
5 | CCc1c(C)nc(SCc2ccccn2)[nH]c1=O | 7.35
6 | CC(=O)Oc1ccc(/C=c2\sc3ncnn3c2=O)cc1 | 6.94
7 | O=C(NCc1cccnc1)C1CC(=O)N(C2CCCCC2)C1 (stereo not drawn) | 7.58
8 | CCCOC1CCCN(Cc2nc(-c3ccc(C(=O)OC)cc3)no2)C1 (stereo not drawn) | 9.34
9 | CCOC(=O)CC(NC(=O)CCS(=O)(=O)c1ccc2c(c1)n(C)c(=O)c(=O)n2C)c1ccc(C)cc1 (stereo not drawn) | 17.3
10 | COc1ccc(C(=O)N(Cc2ccco2)Cc2cccs2)c(O)c1 | 15.4
11 | COc1ccc(N(C)S(=O)(=O)c2cccc(C(=O)Nc3cccc(C(=O)NC4CC4)c3)c2)cc1 | 3.16
12 | C#CCn1c(=NC(=O)CN2C(=O)CCC2=O)sc2cc(S(N)(=O)=O)ccc21 | 13.7
13 | O=C(N/N=C/c1ccccc1O)c1ccc2c(c1)OCO2 | 18.4
14 | Oc1oc(-c2ccccc2Br)nc1/C=N/c1ccccn1 | 18.6
15 | CCCc1cc(=O)oc2cc(C)cc(OCC(=O)Nc3cccnc3)c12 | 4.3
16 | CN(C)C(CNC(=O)CCCc1c[nH]c2ccccc12)c1ccco1 (stereo not drawn) | -1.33
17 | O=C(O)CCSC1CC(=O)N(c2ccccc2)C1=O (stereo not drawn) | 12.4
18 | Cc1sc2ncnc(N[C@@H](Cc3c[nH]c4ccccc34)C(=O)O)c2c1C | 6.73
19 | O=C(NCC(=O)N(Cc1cccs1)C(C(=O)NC1CCCC1)c1ccncc1)c1ccco1 (stereo not drawn) | -6.84
20 | Cc1c(C)c2ccc(OS(C)(=O)=O)cc2oc1=O | 3.59
21 | O=C1c2ccccc2N2C(=O)c3ccccc3[C@H]2N1c1ccccc1 | 1.9
22 | COc1ccc(-c2nnc(NC(=O)C(C)C)o2)cc1 | 8.72
23 | C=CCn1c(=O)c2c3c(sc2n2c(Nc4ccc(C(=O)OCC)cc4)nnc12)CCCC3 | 12.7

Row | SMILES | hERG current change (%, negative = inhibition) at 1uM [%]
24 | O=C(Nc1ccc([N+](=O)[O-])cc1)c1cncc(Br)c1 | 4.11
25 | O=C(Nc1ccc(NS(=O)(=O)c2ccccc2)cc1)c1cccnc1 | 10.4
26 | O=C(Nc1ccccc1[N+](=O)[O-])C1C(c2ccccc2)=C1c1ccccc1 | 11.7
27 | CN(/N=C/c1cccnc1)C1=NS(=O)(=O)c2ccccc21 | 12.1
28 | N#CC(C#N)C(c1ccsc1)c1c(-c2ccccc2)[nH][nH]c1=O (stereo not drawn) | -5.71
29 | CC1c2cc3c(cc2CCN1CC(=O)Nc1ccccc1)OCCCO3 (stereo not drawn) | 8.91
30 | CN(C)P(=O)(NC(=O)c1cccn1C)N(C)C | 10.4
31 | COc1ccccc1-c1nc(=S)c(C(C)=O)c(C)[nH]1 | 5.33
32 | Cc1cc(C)nc(SC(C)C(=O)N/N=C/c2cccs2)n1 (stereo not drawn) | 5.06
33 | CCN(CC)Cc1c(O)ccc2c(C)c(CC(=O)OC)c(=O)oc12.Cl | 17.9
34 | CC(C)C(=O)N1CCN(c2nc3ccc(Cl)cc3s2)CC1 | -2.05
35 | COc1ccc(-c2cc(C(F)F)n3ncc(C(=O)Nc4c(C)n(C)n(-c5ccccc5)c4=O)c3n2)cc1 | 16.8
36 | COc1cc2c(cc1OC)C(COc1ccccc1OC)N(C(=O)c1ccco1)CC2 (stereo not drawn) | 11.5
37 | COc1ccc(OC)c(Nc2cc3ccccc3c(=O)[nH]2)c1 | 17.5
38 | Cc1ccc2[nH]c(=O)c(CN(Cc3cccnc3)Cc3nnnn3CC3CCCO3)cc2c1 (stereo not drawn) | 10.7
39 | COc1ccc(C=C(c2ccc(OC)cc2)c2ccc(OC)cc2)cc1 | 10.4
40 | Cc1c(CCC(=O)N[C@@H](CC(C)C)C(=O)O)c(=O)oc2cc3oc4c(c3cc12)CCCC4 | 8.1
41 | CC(C)Nc1nc(NC(C)(C)C)nc(Oc2ccc(=O)n(-c3ccccc3)n2)n1 | 9.82
42 | CCOC(=O)COn1c(=O)c(-c2cccs2)[n+]([O-])c2ccccc21 | 7.22
43 | CCn1ccnc1CN1CCCC(C(=O)c2cc(Cl)ccc2OC)C1 (stereo not drawn) | -30.6
44 | Cc1ccc(S(=O)(=O)NC(=NCc2ccccc2)c2ccc(F)cc2)cc1 | 4.58
45 | O=C(CN1C(=O)COc2ccccc21)N1CCc2ccccc21 | 12.5
46 | COc1ccc(-c2nnc(SCc3c(C)noc3C)o2)cc1 | 7.08

Row | SMILES | hERG current change (%, negative = inhibition) at 1uM [%]
47 | CCC(C)[C@H](NC(=O)N1CCCCCC1)C(=O)O (stereo partly drawn) | 15.8
48 | CC(C)(C)OC(=O)N1CCC[C@H]1C(=O)N/N=C/c1ccc2nccnc2c1 | 14.8
49 | Br.CCCN(CCC)C1CCc2ccc(O)cc2C1 (stereo not drawn) | -48.9
50 | O=C1Nc2ccccc2OCc2c1cccc2[N+](=O)[O-] | -2.77
51 | CCOc1cc(C2C(C(=O)N3CCCCC3)=C(C)NC3=C2C(=O)CCC3)cc(Br)c1O (stereo not drawn) | 2.89
52 | Cc1ccc(S(=O)(=O)NCC(c2ccco2)S(=O)(=O)c2ccccc2)cc1 (stereo not drawn) | -2.81
53 | COc1ccc(-c2ccc(-c3noc(C)n3)c(OC)n2)cc1 | 3.17
54 | CC(C)NC(=O)COc1ccc(S(=O)(=O)N(C)Cc2ccccc2)cc1 | 6.57
55 | Cc1ccc(Cn2c(SCC(=O)NCc3ccco3)nc3ccsc3c2=O)cc1 | -14.5
56 | CC1=NNC(=O)C1CCC(=O)N/N=C/c1ccco1 (stereo not drawn) | 1.35
57 | c1ccc(-c2nnc(-c3ccccn3)nn2)nc1 | -0.974
58 | CC(NC(=O)c1ccco1)C(=O)N1CCc2ccccc2C1 (stereo not drawn) | 14.7
59 | COS(=O)(=O)[O-].Cn1c(-c2ccccc2)c[n+]2c1-c1ccccc1C2 | 6.69
60 | CCOC(=O)c1cc(-c2ccccc2C)n(CC2CC(c3cccc([N+](=O)[O-])c3)=NO2)n1 (stereo not drawn) | 11.6
61 | COC(=O)c1ccc(/C=C2/SC(=S)N(CCC(=O)NCCCN3CCOCC3)C2=O)cc1 | 5.78
62 | COc1cc([N+](=O)[O-])ccc1N1C(=O)C2C3C=CC(C4CC34)C2C1=O (stereo not drawn) | 2.95
63 | CCCOc1ccc(/C=N/Nc2ccccn2)cc1OC | 14.2
64 | CSc1nc(N)c2c(C)c(C)sc2n1 | 10.8
65 | Cc1[nH]c2c(C)cccc2c1CCNC(=O)C1CCCCC1C(=O)OCC(F)(F)F (stereo not drawn) | 13.5
66 | CCOc1ccc2[nH]cc(C(=O)NCc3ccccc3)c(=O)c2c1 | 14.9
67 | CC(C)CC(=O)NNC(=O)C(C)C | 13.5
68 | CCCCn1c(O)c(C=NC2CC3CCC2(C)C3(C)C)c(=O)[nH]c1=O (stereo not drawn) | 4.59
69 | CCn1cc([N+](=O)[O-])c(C(=O)NCc2ccc3c(c2)OCO3)n1 | 11.6

Row | SMILES | hERG current change (%, negative = inhibition) at 1uM [%]
70 | Cc1ccc(C2CC(c3ccccc3)=NN2c2ccccc2)o1 (stereo not drawn) | 11
71 | Cc1ccccc1NCN1C(=O)C2C3C=CC(C3)C2C1=O (stereo not drawn) | 8.59
72 | CCOc1ccc2nc(NC(=S)NCc3ccccc3)sc2c1 | 2.47
73 | CCC(=O)Nc1cccc2ccccc12 | 4.62
74 | Cc1cc(C)nc(SC2CCCCC2O)n1 (stereo not drawn) | 16.3
75 | CCOCCCNC(=O)CN1C(=O)CSc2ccc(S(=O)(=O)N3CCOCC3)cc21 | 18.9
76 | CN(Cc1nc(-c2cccnc2)no1)S(=O)(=O)c1ccc(Br)cc1 | -5.83
77 | CCOC(=O)N1CCN(C(=O)C2CC(=O)N(Cc3ccc(OC)cc3)C2)CC1 (stereo not drawn) | 6.27
78 | COc1ccc(NC(=O)C(=O)N/N=C(\C)CC(=O)Nc2ccccn2)c(OC)c1 | 12.3
79 | COCC1CCCCN1C(=O)c1ccc2nc(Cc3ccc(OC)c(OC)c3)oc2c1 (stereo not drawn) | 12.2
80 | COc1cc(/C=C(\C#N)c2nc3c(s2)CCCC3)ccc1O | 9.31
81 | Cc1cccc(C(C)C)c1NC(=O)COC(=O)C1CC(=O)N(Cc2ccccc2)C1 (stereo not drawn) | 6.76
82 | Cc1cccc(-n2c(O)c(C=NC3CCS(=O)(=O)C3)c3ccccc3c2=O)c1C (stereo not drawn) | 6.24
83 | COc1ccc(NC(=S)N(CCCN2CCOCC2)Cc2cn(C)c3ccccc23)cc1 | 6.9
84 | CCOC(=O)c1c(N2C(=O)C3C4C=CC(O4)C3C2=O)sc2c1CCCC2 (stereo not drawn) | 3.99
85 | COc1ccc(CCC(=O)Nc2cccc(S(=O)(=O)N3CCCC3)c2)cc1OC | 4.35
86 | CC(=O)Nc1cccc(-n2c(=O)n(Cc3ccccc3)c(=O)c3[nH]cnc32)c1 | 11.3
87 | CSCCC(NC(=O)CCNC(=O)c1ccccc1Cl)c1nc2ccccc2[nH]1 (stereo not drawn) | 5.12
88 | CCN1CCN(C(=O)Cn2ncc3ccsc3c2=O)CC1 | 9.83
89 | CCc1ccc(N2C(=O)C(Cl)=C(N3CCCCCC3)C2=O)cc1 | 11.5
90 | Cc1ccccc1OCc1nc2ccccc2c(=O)n1NC(=O)c1ccco1 | 16.5
